Reference: PubChem BioAssay AID1347071 (National Center for Advancing Translational Sciences (NCATS), 2019)
About 260 (0.063%) of roughly 410,000 compounds were called active. The shares of active, inactive and inconclusive entries below differ from those in the screen. The call rests on the fitted dose curve; in most records, active means well fitted activation curve with a large enough effect; inconclusive means small, poorly fitted or top-dose-only effect; inactive means no such curve, though single readings can be large or run the other way. No potency is given beside an inconclusive call; the fits are too rough.

Test: qHTS for compounds that reverse cellular toxicity of Amyloid beta (A-beta) peptide in yeast: Primary Screen; further: nearly all actives have a fitted effect of over 55% in size
Conditions: yeast expressing A-beta42, growth rescue, OD600, 48 h; growth rescue: at 46.1 µM (top of the series), 0% DMSO, 100% iron-clioquinol control
How it was run: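 Yeast growth medium received pinned compounds, then yeast cells expressing toxic A-beta were added; plates incubated at 30 C for 48 hr. Growth read as absorbance at 600 nm, normalized to DMSO and equimolar FeCl3 plus clioquinol controls.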
Potency means the concentration at half of the fitted maximal effect; tags describe the fitted curve by direction and shape.

Compound	Potency	growth rescue
O=C(Cn1cc2c(n1)CCCC2)Nc1ccccc1Br	inconclusive [activator, single point]	
COc1cc(OC)c(C2C3=C(CCCC3=O)Nc3nc4ccccc4n32)cc1OC (stereo not given)	inactive	
CC(C)(C)c1csc(N(CCC#N)CCC#N)n1	inactive	
Cc1nn(CC(=O)OCCOc2ccc(Br)cc2)c(C)c1[N+](=O)[O-]	inactive	
COc1cc(Br)cc(C2C3=C(CCCC3=O)N(c3ccc(F)cc3)C3=C2C(=O)CCC3)c1O	inconclusive [activator, single point]	
Cc1csc2nc(COc3cccc(NC(=O)c4ccccc4F)c3)cc(=O)n12	inactive	
CC(C)(O)C#Cc1ccc(C(=O)N2CCN(c3ccc(Cl)cc3)CC2)cc1	inconclusive [activator, single point]	
Cc1ccc(C(=O)NC(=S)NNS(=O)(=O)c2ccc(C)cc2)cc1	inconclusive [activator, single point]	
CCCCc1ccc(NC(=S)N2CCN(C(=O)OCC)CC2)cc1	inconclusive [activator, partial curve]	
O=S(=O)([N-]c1nc2ccccc2nc1-[n+]1ccc(-c2ccncc2)cc1)c1ccccc1	inactive	
C/C(=N\NC(=S)Nc1ccccc1)C1Cc2ccccc2C(=O)O1 (stereo not given)	inconclusive [activator, partial curve, poor fit]	
CCOc1ccc(C(=O)NC(=S)Nc2ccccc2N2CCCCC2)cc1[N+](=O)[O-]	inactive	
CCC(=O)NC(=S)Nc1ccc(NC(=O)c2ccc([N+](=O)[O-])cc2Cl)cc1	inconclusive [activator, partial curve]	
COc1ccc(Cl)cc1NC(=S)NCCC(c1ccccc1)c1ccccc1	inconclusive [activator, single point]	
CCN(CC)C(=O)C(=O)Nc1ccc(Oc2ccccc2)cc1	inconclusive [activator, single point]	
CCCn1c(SCC(=O)Nc2cccc(C(=O)OC)c2)nnc1-c1cccnc1	inconclusive [activator, partial curve, poor fit]	
CC(OC(=O)CN(C)S(=O)(=O)c1ccc(Cl)cc1)C(=O)Nc1cccc(Cl)c1 (stereo not given)	inconclusive [activator, partial curve]	
CC(=O)c1cc(-c2ccc(F)cc2)n(CC(=O)Nc2cc(C)cc(C)c2)c1C	inactive	
CC1CC2(CCCC2)N(C(=O)c2ccccc2)Cc2ccccc21 (stereo not given)	inconclusive [activator, single point]	
CC(OC(=O)COc1ccc(Nc2ccccc2)cc1)C(=O)N(C)c1ccccc1 (stereo not given)	inconclusive [activator, partial curve, poor fit]	
COc1cccc(NC(=S)NCc2ccc(F)cc2)c1	inconclusive [activator, single point]	
C/C(=N\Nc1nccnc1Cl)c1ccc([N+](=O)[O-])cc1	inconclusive [activator, partial curve, poor fit]	
Cc1ccc(COc2ccccc2-c2cc(C(=O)N/N=C/c3cccnc3)[nH]n2)cc1	inconclusive [activator, single point]	
CSc1ccccc1NC(=O)c1ccc2c(c1)CCN2S(C)(=O)=O	inconclusive [activator, single point]	

Compound	Potency	growth rescue
CC1(C)N=C(SCc2ccccc2Cl)c2ccccc2N1	inconclusive [activator, single point]	
CCC(=O)NC(c1cc(Cl)c2cccnc2c1O)C(C)C (stereo not given)	inconclusive [activator, single point]	
O=C(CSc1ccccn1)Nc1ccc(F)c([N+](=O)[O-])c1	inconclusive [activator, partial curve, poor fit]	
CC(C)CNC(=S)N1CCC(c2nc(-c3ccc(F)cc3)no2)CC1	inconclusive [activator, partial curve, poor fit]	
S=C(NCc1ccccc1)NCc1ccccc1Cl	active: 12.6 µM	
O=C(Nc1ccc(Cl)cc1)C1(S(=O)(=O)c2ccccc2)CC1	inconclusive [activator, partial curve, poor fit]	
Cc1cc(Cl)ccc1OCCCC(=O)Nc1cccnc1	inconclusive [activator, partial curve]	
Cn1cnc([N+](=O)[O-])c1Nc1ccc(O)cc1	inconclusive [activator, single point]	
CC(C)NC(=O)c1sc2nc(-c3cccs3)cc(-c3cccs3)c2c1N	inconclusive [activator, partial curve]	
CCOC(=O)Cc1csc(NC(=S)NC(=O)CC(C)C)n1	inconclusive [activator, single point]	
CCN(CC)c1ccc(C(=O)NC(=S)N2CCN(Cc3ccc4c(c3)OCO4)CC2)cc1	inconclusive [activator, single point]	
CC(C)(C)C(=O)COC(=O)c1ccc(O)cc1	inconclusive [activator, single point]	
CCOC(=O)c1c(C)[nH]c(C)c1S(=O)(=O)N1CCCC(C(=O)NCc2ccc(N(C)C)cc2)C1 (stereo not given)	inactive	
CC1=C(C#N)CCC(=O)N1Cc1c(C)cc(C)cc1C	inconclusive [activator, partial curve, poor fit]	
CSc1nc(Cl)cc(Nc2ccccc2N)n1	inactive	
Cc1cc(=O)[nH]c(Nc2cccc(F)c2)n1		inconclusive: 86.2% [activator]
COc1cccc(-n2c(-c3ccc4[nH]c(C)c(C)c4c3)n[nH]c2=S)c1	inactive	
O=C(Nc1ccc(N2CCOCC2)c(S(=O)(=O)Nc2cc(Cl)ccc2Cl)c1)c1cccnc1	inconclusive [activator, partial curve, poor fit]	
O=C(NCc1ccccc1)C1COc2ccccc2O1 (stereo not given)	inconclusive [activator, single point]	
Fc1ccc(OCCn2cnc(Cl)c2Cl)cc1	inconclusive [activator, single point]	
Cc1nn(C)c(=S)[nH]c1=S	inconclusive [activator, full curve]	
COC(=O)C1(C)NC(c2cccc(C)c2)C2C(=O)N(c3ccc(F)cc3)C(=O)C21 (stereo not given)	inconclusive [activator, single point]	
Cc1cccc(C)c1OCC(=O)OCC(=O)Nc1ccc(Cl)cn1	inconclusive [activator, full curve, poor fit]	
Fc1ccc(C2c3cccn3CCN2C(=S)Nc2cccc(Br)c2)cc1 (stereo not given)	inconclusive [activator, single point]	

Compound	Potency	growth rescue
CCn1c(=S)[nH]c2cc(Cl)ccc21	active: 12.6 µM	
COc1cc(F)ccc1-c1csc(C(O)(c2ccccc2)C(F)(F)F)n1 (stereo not given)	inactive	
Cc1ccc(CNC(=O)c2cccnc2)cc1	inconclusive [activator, single point]	
COc1cc(OC)c(NC2(c3ccccc3)C(=O)c3ccccc3C2=O)cc1Cl	inactive	
CCc1ccccc1NC(=O)c1ccc2snnc2c1	inconclusive [activator, single point]	
COc1cccc(NC(=O)CSc2nc3cc(OC)c(OC)cc3c3nc(-c4ccccc4)nn23)c1	inactive	
CCOc1ccccc1CNC(=O)c1cc2n(n1)CCCN(Cc1ccc(C)cc1)C2=O	inconclusive [activator, single point]	
COc1ccc(C(C#N)=Cc2ccc(N(C)CCC#N)cc2)cc1	inconclusive [activator, single point]	
COc1ccc(-c2csc3nc(-c4cccnc4)nc(N4CCC(C(N)=O)CC4)c23)cc1OC	inactive	
Cc1ccc(Nc2nc(C)cs2)cc1	inconclusive [activator, single point]	
COC(=O)C1=C(C)Nc2nc(-c3ccccc3)nn2C1c1ccc(C)o1 (stereo not given)	active: 11.2 µM	
COc1ccc(C(=O)CCC(=O)O)cc1	inactive	
C=CCn1c(CSc2nc3ccccc3s2)n[nH]c1=S	inconclusive [activator, single point]	
O=C(CNS(=O)(=O)c1ccc2ccccc2c1)OCc1nnc(-c2ccccc2)o1	inconclusive [activator, single point]	
Cc1ccccc1S(=O)(=O)N1C[C@H]2[C@H]3C(=O)N(C4CCCCC4)C(=O)[C@H]3CC(=O)[C@H]2[C@@H]1c1ccc(Cl)cc1	inconclusive [activator, full curve]	
CC1(C)N=C(SCC(=O)Nc2ccccc2)C(c2ccc(Cl)cc2)=N1	inactive	
Cc1cccc2sc(NC(=O)CCn3cccc3)nc12	inconclusive [activator, partial curve, poor fit]	
CCn1c(SCC(=O)Nc2nnc(C)s2)nnc1-c1ccco1	inactive	
O=CNCCCc1nc2ccccc2n1CCc1ccccc1	inactive	
C=Cc1ccc(Cn2c(C)c(C(=O)NCc3cccc([N+](=O)[O-])c3)sc2=O)cc1	inconclusive [activator, single point]	
CCCCCCC(C)n1[nH]c(=O)c2c(C)cc(C)nc21 (stereo not given)	inconclusive [activator, full curve]	
Cc1cc2c(c(=O)n1CCc1ccccc1)C(C(C)C)C(C#N)=C(N)O2 (stereo not given)	inactive	
